Assay results published in FireProtDB (doi:10.1093/protein/5.6.519).

Details: Homo sapiens; pH 7.5; 23 °C; GdnHCl; CD; Tris 0.2 M; reversible: yes

Insulin wild type (letters omitted)
denaturant midpoint (higher = more stable): 5.1 M
unfolding free energy: 18.4 kJ/mol
